According to PMC4336329 (PLoS ONE, 2015):
About 14,000 (4.5%) of roughly 310,000 compounds showed an effect of 50% or more. Effects have a minus sign here. The list shows a part of the results.

target: human ether-à-go-go-related gene (hERG) potassium channel (human, UniProt Q12809); assay: primary screen, population patch clamp on CHO cells stably expressing hERG
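Note: peak tail current of the secondary pulse compared with the same well before compound.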

Chain of human ether-à-go-go-related gene (hERG) potassium channel (Q12809 whole entry, looked up): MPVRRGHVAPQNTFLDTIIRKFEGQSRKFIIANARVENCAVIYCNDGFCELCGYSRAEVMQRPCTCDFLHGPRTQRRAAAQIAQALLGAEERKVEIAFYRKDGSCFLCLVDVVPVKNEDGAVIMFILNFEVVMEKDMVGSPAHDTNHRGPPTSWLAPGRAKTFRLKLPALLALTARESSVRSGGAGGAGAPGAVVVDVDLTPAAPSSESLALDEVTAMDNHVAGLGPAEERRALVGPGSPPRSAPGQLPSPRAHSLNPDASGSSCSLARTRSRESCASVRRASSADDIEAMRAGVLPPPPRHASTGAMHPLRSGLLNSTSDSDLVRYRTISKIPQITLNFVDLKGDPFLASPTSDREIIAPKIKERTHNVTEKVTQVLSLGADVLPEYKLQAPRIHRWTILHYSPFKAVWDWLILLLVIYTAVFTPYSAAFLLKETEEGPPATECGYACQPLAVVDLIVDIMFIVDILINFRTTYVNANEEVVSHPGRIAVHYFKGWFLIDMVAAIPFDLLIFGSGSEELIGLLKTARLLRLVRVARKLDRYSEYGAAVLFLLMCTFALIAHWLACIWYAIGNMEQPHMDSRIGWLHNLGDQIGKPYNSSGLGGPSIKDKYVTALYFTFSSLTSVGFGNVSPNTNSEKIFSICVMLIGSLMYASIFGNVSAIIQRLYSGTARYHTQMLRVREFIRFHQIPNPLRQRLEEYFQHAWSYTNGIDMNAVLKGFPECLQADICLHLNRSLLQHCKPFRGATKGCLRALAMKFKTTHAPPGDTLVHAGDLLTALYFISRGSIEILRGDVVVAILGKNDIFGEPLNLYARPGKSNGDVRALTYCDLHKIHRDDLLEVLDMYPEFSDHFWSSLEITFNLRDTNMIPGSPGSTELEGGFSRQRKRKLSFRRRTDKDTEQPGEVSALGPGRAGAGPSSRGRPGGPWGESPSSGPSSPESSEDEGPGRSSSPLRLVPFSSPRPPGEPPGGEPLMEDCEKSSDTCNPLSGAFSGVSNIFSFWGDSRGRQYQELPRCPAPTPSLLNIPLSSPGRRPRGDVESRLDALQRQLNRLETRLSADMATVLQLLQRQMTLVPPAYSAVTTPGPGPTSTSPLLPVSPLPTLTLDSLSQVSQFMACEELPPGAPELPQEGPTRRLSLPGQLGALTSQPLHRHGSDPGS

Row | SMILES | hERG current change (%, negative = inhibition) at 10uM
1 | O=S(=O)(c1ccc(Sc2nnc3ccccn23)nc1)N1CCOCC1 | 2.1%
2 | Brc1ccc(-c2csc(-c3ccncc3)n2)cc1 | 15.3%
3 | CCN(CC)C(=O)CSc1nc(O)c(Cc2ccccc2)c(=O)n1-c1ccccc1 | 11.1%
4 | C=CCN1C(=O)c2ccc(C(=O)N3CCN(S(=O)(=O)c4cccc([N+](=O)[O-])c4)CC3)cc2C1=O | -30.4%
5 | COc1cccc(CNC(=O)CN2C(=O)CCSc3ccc(S(=O)(=O)N4CCCC4)cc32)c1 | -15%
6 | O=c1oc2ccc3ccccc3c2c2c1SC(C(F)(F)F)C2 (stereo not drawn) | 6.15%
7 | CCOCCCNC(=O)CSc1ccccc1 | 14.4%
8 | CCN(CC)CCCNC(=O)c1ccccc1C | -10.6%
9 | COc1cccc(C(=O)c2ncc(C(F)(F)F)cc2Cl)c1 | -2.98%
10 | CCOc1ccc(NC(=S)NC23CC4CC(CC(C4)C2)C3)cc1 | -0.687%
11 | CSc1ccccc1OCc1cc(C(=O)N2CCNC(=O)C2)no1 | 0.87%
12 | O=C(NCc1cccnc1)c1cnc2ccccc2n1 | 11.9%
13 | O=C(Cn1c(CN2CCCCC2)nc2ccccc2c1=O)Nc1ccccc1 | -10.2%
14 | Cc1ccc2[nH]cc(CCNC(=O)/C=C/c3ccco3)c2c1 | -2.52%
15 | CC(Cl)C(=O)Nc1ccccc1C#N (stereo not drawn) | 25.5%
16 | CC(=O)NC(CC(=O)NCc1ccncc1)c1ccccc1 (stereo not drawn) | 18.6%
17 | COc1ccc(OC)c(NC(=O)CS(=O)(=O)Cc2nc(-c3ccccc3C)oc2C)c1 | 7.66%
18 | O=C(Cn1ccc2ccccc2c1=O)NCCC(=O)N1CCN(c2cccc(C(F)(F)F)c2)CC1 | -26%
19 | COc1ccc(C2SCCN2C(=O)c2ccc([N+](=O)[O-])cc2)cc1 (stereo not drawn) | -70%

Row | SMILES | hERG current change (%, negative = inhibition) at 10uM
20 | CN1C(=O)C2(C(C#N)=C(N)Oc3c2oc(CO)cc3=O)c2ccccc21 (stereo not drawn) | 13.8%
21 | OCC#CC[N+]1(CC#Cc2ccccc2)CCOCC1.[Br-] | -1.3%
22 | COc1ccc(/C=C(/NC(=O)c2ccccc2)C(=O)Nc2cccc(C(=O)O)c2)cc1 | 9.05%
23 | Cc1nn(CC(=O)N(C)C)c(C)c1S(=O)(=O)N1CCOCC1 | 6.99%
24 | O=C(C1=COCCO1)N(Cc1nnc(-c2ccc(Cl)cc2)o1)C1CC1 | -31.9%
25 | COC(=O)c1sc(NC(=O)C2c3ccccc3Oc3ccccc32)c(C(=O)OC)c1C | -2.69%
26 | COc1cc(/C=N/NC(=O)c2ccc(Cn3cc([N+](=O)[O-])cn3)o2)cc(Br)c1O | -77.5%
27 | CC1CCCCC1NC(=O)COC(=O)C12CC3CC(CC(Cl)(C3)C1)C2 (stereo not drawn) | 4.69%
28 | CNC(=O)CSCc1c(Cl)cccc1Cl | 1.87%
29 | CCOC(=O)c1csc(NC(=O)CSc2nnnn2-c2ccc3c(c2)OCCO3)n1 | 17.8%
30 | Nc1nc(CN2CCN(c3ccccc3F)CC2)nc(Nc2ccccc2)n1 | -57.1%
31 | Cc1c(CNCCCc2ccccc2)c(C(=O)O)c(C)n1Cc1ccccc1 | 4.03%
32 | CCOc1ccccc1CNC(=O)C1CCN(c2nc3ccccc3o2)CC1 | -13.4%
33 | CC1CCc2c(nc3sc4c(c3c2N)CCCC4)C1 (stereo not drawn) | -11.5%
34 | O=C(CSc1nnc(-c2ccccn2)n1Cc1ccco1)c1ccc(-c2ccccc2)cc1 | 4.82%
35 | CCc1ccccc1NC(=O)CSc1nnc([C@@H](NC(=O)OC(C)(C)C)C(C)CC)o1 (stereo partly drawn) | -31.5%
36 | O=C1CN(C(=O)c2cccs2)c2ccccc2N1 | -4.44%
37 | O=C1NC(c2ccc(Br)cc2)Oc2ccccc21 (stereo not drawn) | 7.33%
38 | CCC(Oc1ccccc1)C(=O)Nc1ccccc1N1CCCCC1 (stereo not drawn) | 5.6%

Row | SMILES | hERG current change (%, negative = inhibition) at 10uM
39 | COc1ccc(/C(N)=N/OC(=O)Oc2ccccc2)cc1OC | 16.4%
40 | CC1CCC(NC(=O)c2cc(Cl)nc3ccccc23)CC1 (stereo not drawn) | 10.9%
41 | CC(C)c1ccc(CN2CC(C(=O)O)CC2=O)cc1 (stereo not drawn) | 15.7%
42 | COc1cccc(-c2cccc(NC(=O)C3CCN(Cc4cccc(C)n4)CC3)c2)c1 | -80.1%
43 | COc1ccccc1C(=O)N1CCC(N2CCN(c3ccccc3)CC2)CC1 | -8.58%
44 | O=C(Nc1ccnn1C1CCN(Cc2ccccc2)CC1)C1CCCC1 | -36.7%
45 | CCOC(=O)C1CCN(Cc2cccc(Oc3ccccc3)c2)CC1 | -21%
46 | COc1ccccc1N(C)S(=O)(=O)c1ccc(C(=O)N2CCCC(C(F)(F)F)C2)cc1 (stereo not drawn) | -4.52%
47 | Cc1ccc(N2C(=O)NC(=O)C(CCc3ccccn3)(Cc3cccc(Cl)c3Cl)C2=O)cc1 (stereo not drawn) | -18.6%
48 | Fc1ccc(CN2CCN(C(=S)NCCc3ccccc3)CC2)c(Cl)c1 | 29.2%
49 | COc1ccc(/C=N\NC(=O)c2ccccc2OC)cc1COc1ccccc1C | 13.8%
50 | CNC(=O)C1(C)C=CC2(CCCCC2)N1C(=O)OC (stereo not drawn) | 11%
51 | CC(C)c1ccc(S(=O)(=O)N2CCN(C(=O)n3ccnc3)CC2)cc1 | -35.8%
52 | COc1ccccc1-n1cnc2cc(C(=O)NCCCN3CCOCC3)ccc21 | -0.264%
53 | COc1cc(/C=N/N=C(N)N)ccc1OCc1ccc(Cl)cc1 | -50.5%
54 | COc1ccc(-n2c(=O)c3c4c(sc3n(CC(=O)NCC3CCCO3)c2=O)CCCC4)c(OC)c1 (stereo not drawn) | 8.31%
55 | O=S(=O)(c1ccc2ccccc2c1)N1C=CC(C(F)(F)F)=NCC1 | -11.6%
56 | COc1ccc(N2CCN(C(=O)CCSCc3ccccc3F)CC2)cc1 | -28.1%
57 | CN1C(=O)/C(=C/c2ccccc2OCc2ccc(C(=O)O)cc2)NC1=S | 9.44%
